# Results: PubChem BioAssay AID1345083 (National Center for Advancing Translational Sciences (NCATS), 2018)
# About 6,200 (6.6%) of roughly 94,000 compounds were called active. Inconclusive results, whose numbers are uncertain, are shown with a selection of clear calls. Calls come from the whole dose curve; as a rule, active = well fitted inhibition curve with a large enough effect; inconclusive = small, poorly fitted or top-dose-only effect; inactive = flat fitted curve, though single readings scatter. Where the call is inconclusive, the potency comes from a doubtful curve fit.
# Experiment: Cytotoxic Profiling in HEK 293 Cell Line of Diverse Libraries Using Quantitative High-Throughput Screening; note: nearly all actives have a fitted effect of over 60% in size
# Settings: HEK 293 viability, ATP luminescence (CellTiter-Glo), 48-72 h; series mostly up to 115 µM
# Method in brief: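 250 HEK 293 cells/well; compound by pintool; incubated 48 or 72 hr at 37 degree Celsius; CellTiter-Glo added, 10 min RT, luminescence imaged.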
# Potency is the fitted concentration of half-maximal effect; tags give direction and shape of the fitted curve.
row,SMILES,Potency
1,O=C(NCc1ccc(F)cc1)c1nn(CCOc2ccccc2)c2c1CNCC2,active: 39.8 µM
2,O=C(c1cn(C2CCCCC2)nn1)N1CCCC(C(=O)N2CCOCC2)C1 (stereo not given),inactive
3,Cn1cc(C2c3nccn3CCCN2C(=O)c2ccccc2F)cn1 (stereo not given),inactive
4,Cc1nn2c(c1-c1ccccc1N1CCCC1)N(C(=O)c1cccc(N(C)C)c1)CCC2,active: 89.1 µM
5,O=C(c1cccc2[nH]ccc12)N1CCC(N2C(=O)C3(CCCCC3)C2c2ccncc2)CC1 (stereo not given),inactive
6,COc1ccc2nc(CO[C@H]3CN(C(=O)c4ccccc4)C[C@H]3F)[nH]c2c1,inactive
7,Cc1nn(-c2ccccc2)c(C)c1[C@@H]1C=C[C@@H](NC(=O)c2ccc3c(c2)OCO3)C1,"inconclusive: 70.8 µM [inhibitor, partial curve, poor fit]"
8,CC(C)CN(CC1CN(C(=O)Cc2cccs2)CCO1)C(=O)c1cccc2ccccc12 (stereo not given),"inconclusive: 89.1 µM [inhibitor, partial curve, poor fit]"
9,Cc1nc(NCCc2nc3ccccc3n2C)cc(C2CC(O)C2)n1 (stereo not given),inactive
10,CN1CCC2(C1)CN(CC1CCOCC1)c1ccc(C(=O)NCCOc3ccccc3)cc12 (stereo not given),"inconclusive: 79.4 µM [inhibitor, partial curve]"
11,O=C(Nc1cccc(-c2nnc3n2CCCC3)c1)C1CCCC1,inactive
12,O=C(NCCNC(=O)c1ccc(-c2cncnc2)cc1)Nc1ccc(Cl)cc1,"inconclusive: 89.1 µM [inhibitor, single point]"
13,COc1cc(NC(=O)Cn2ccn3nc(-c4ccccc4)c(CO)c3c2=O)cc(OC)c1OC,active: 31.6 µM
14,Cc1noc(-c2cccn3c(CNC(=O)c4ccc(C(C)(C)C)cc4)nnc23)n1,"inconclusive: 89.1 µM [inhibitor, single point]"
15,Cn1ncc2c(C(=O)NCCc3ccc(F)cc3)cc(-c3ccccc3)nc21,inactive
16,Cc1noc(C)c1C(=O)N1CC(N2C(=O)c3c(c(C)nn3-c3ccccc3)C2C)C1 (stereo not given),"inconclusive: 22.4 µM [inhibitor, full curve]"
17,COc1cccc(CNC(=O)C2CCN(c3nc4ncccc4o3)CC2)c1,inactive
18,CS(=O)(=O)c1cnc(NCCCc2ccccc2)nc1C1CCCNC1 (stereo not given),"inconclusive: 56.2 µM [inhibitor, partial curve, poor fit]"
19,CCOc1ccc(CN2C[C@H](N(C)C)C[C@H]2C(=O)OC)cc1Cl,inactive
20,O=C(c1ccncc1)N1CC(N(Cc2ccncc2)CC2CC2)C1,inactive
21,COc1ccccc1-n1c(=O)[nH]c2cccnc21,inactive
22,COc1ccc(C(=O)N2CCC([C@@H]3CNC[C@H]3CO)CC2)cc1,inactive
23,O=C(C1CC1)N1CCC2(CC1)CC(N1CCN(c3ccccn3)CC1)CCO2 (stereo not given),"inconclusive: 17.8 µM [inhibitor, full curve]"
24,O=C(NCCc1ccc(Cl)cc1)c1nc2sccn2c1-c1ccccc1,"inconclusive: 56.2 µM [inhibitor, partial curve, poor fit]"

row,SMILES,Potency
1,O=C(NC1CCN(c2nccc(Nc3ccccc3Cl)n2)CC1)c1ccccn1,"inconclusive: 50.1 µM [inhibitor, partial curve, poor fit]"
2,COc1ccccc1CN1C(=O)COC[C@@H]1[C@H](O)c1ccc(NC(=O)c2ccc(C#N)cc2)cc1,active: 39.8 µM
3,COc1cccc(-c2noc(CC3CCN(C(=O)CCCc4ccccc4)CC3)n2)c1,"inconclusive: 50.1 µM [inhibitor, partial curve, poor fit]"
4,O=C(C1CC1)N1CCCC(Cc2noc(-c3ccccn3)n2)C1 (stereo not given),inactive
5,CSc1ccc(-c2cccc(CN3CCC(NC(=O)NC4CCCC4)CC3)c2)cc1,inactive
6,Cn1cc(CN2CCC(C(O)c3cccnc3)CC2)c(-c2ccc(C3CCCCC3)cc2)n1 (stereo not given),active: 79.4 µM
7,CCc1ccccc1NC(=O)N1c2ccccc2CC1c1nc(C2CC2)no1 (stereo not given),"inconclusive: 70.8 µM [inhibitor, single point]"
8,Cc1cnc(CCNC(=O)NCc2ccccc2)n1C1CCC1,"inconclusive: 89.1 µM [inhibitor, single point]"
9,CC(C)CN(C/C=C/c1ccccc1)C(=O)C1CC2(CCNCC2)CN1 (stereo not given),"inconclusive: 56.2 µM [inhibitor, partial curve, poor fit]"
10,CC(=O)Nc1ccc(CNC2(Cc3cc(CN(C)C)on3)COC2)cc1,inactive
11,CN(C)c1cccc(-c2cn(C)c(=O)n3cc(CN4CC[S+](=O)([O-])CC4)nc23)c1,"inconclusive: 100 µM [inhibitor, partial curve]"
12,COc1cc(CNCCC(C)C)ccc1OCC(O)CN1CCSCC1 (stereo not given),inactive
13,O=C1CCN(Cc2ccncc2)CCCC(C(=O)NCc2cccc(C(F)(F)F)c2)CCN1 (stereo not given),inactive
14,NCc1ccccc1-c1cc(C(F)(F)F)ccc1Cl,"inconclusive: 89.1 µM [inhibitor, partial curve, poor fit]"
15,O=C(NC1CCN(C(=O)c2ccc(-c3cncnc3)cc2)CC1)c1ccc(F)cc1,"inconclusive: 100 µM [inhibitor, single point]"
16,COc1cccc(-c2cc3c(=O)n(CCNC(=O)Cc4ccccc4C)ccn3n2)c1,inactive
17,Cc1cn2nc(C(=O)Nc3ccccc3C)cc2c(N2CCSCC2)n1,"inconclusive: 56.2 µM [inhibitor, partial curve, poor fit]"
18,CCOC(=O)COC1CCN(C(=O)c2cccc(OC)c2)CC(=O)N(C)c2ccccc21 (stereo not given),"inconclusive: 39.8 µM [inhibitor, single point]"
19,COCC(=O)Nc1ccc2c(c1)CN(Cc1cccc(OC)c1OC)CCO2,inactive
20,CCC1=C(C(=O)OC)C(c2cccc(OC)c2OC)N2C(CC(=O)N3CCOCC3)=CSC2=N1 (stereo not given),inactive
21,COc1ccc(CN2C[C@H]3CN(Cc4ccc(Cl)cc4)CCN3C2=O)cc1,active: 70.8 µM
22,COc1ccc(CN2C(=O)[C@@H]3C[C@@H](CN3Cc3ccc(S(C)(=O)=O)cc3)Oc3ccccc32)cc1,"inconclusive: 31.6 µM [inhibitor, full curve]"
23,COc1ccc(N2C(=O)C3(CCCCC3)C2C(=O)O)cc1 (stereo not given),inactive
24,O=C(N[C@@H]1CN(c2ncccn2)C[C@H]1CO)c1ccco1,inactive

row,SMILES,Potency
1,Cc1ccc(C2Cn3cnc(C(=O)N4CCC(C(=O)NCc5ccco5)CC4)c3CO2)cc1 (stereo not given),inactive
2,O=C(c1cc2ccccc2[nH]1)N1CCC2(C1)NC(=O)N(Cc1ccc(F)cc1)C2=O (stereo not given),"inconclusive: 25.1 µM [inhibitor, partial curve, poor fit]"
3,O=C(c1ccccc1F)N1CCN(Cc2ccccc2-c2ccccc2F)CC1,"inconclusive: 79.4 µM [inhibitor, partial curve, poor fit]"
4,Cn1cccc1C(=O)N1CCC(c2[nH]ncc2Cc2ccccc2)CC1,"inconclusive: 89.1 µM [inhibitor, single point]"
5,Cc1cccc(NC(=O)Nc2ccc(C)n(CC(=O)Nc3ccc(C)c(C)c3)c2=O)c1,active: 28.2 µM
6,CN(C)C(=O)c1cn2cc(-c3ccccc3)sc2n1,"inconclusive: 63.1 µM [inhibitor, full curve, poor fit]"
7,COc1ccccc1CN1CCOc2cc([S+](=O)([O-])N(C)C)ccc2C1,active: 89.1 µM
8,O=C1COc2ccc(-c3cccnc3)nc2CN1Cc1ccc(C(F)(F)F)cc1,"inconclusive: 56.2 µM [inhibitor, partial curve, poor fit]"
9,CCC1Oc2ccc(NC(=O)c3ccccc3F)cc2CN(Cc2ccc(OC)cc2)C1=O (stereo not given),"inconclusive: 79.4 µM [inhibitor, partial curve, poor fit]"
10,O=C(Nc1cccc(-c2nnc3n2CCCC3)c1)c1ccc2ccccc2n1,"inconclusive: 79.4 µM [inhibitor, partial curve, poor fit]"
11,O=C1Cc2c(-c3ccoc3)n[nH]c2CN1Cc1ccccc1,inactive
12,Cc1ccccc1-n1nc(C)c(CCC(=O)NCC2CC2)c1Oc1ccccc1,"inconclusive: 44.7 µM [inhibitor, partial curve]"
13,O=C(CN1C(=O)NC2(CCCCC2)C1=O)NCc1cccc(Br)c1,"inconclusive: 100 µM [inhibitor, single point]"
14,Fc1ccc(-c2cc(-c3cn[nH]c3)c3cncn3c2)cc1,"inconclusive: 79.4 µM [inhibitor, partial curve, poor fit]"
15,O=C(N[C@H]1CO[C@H]2[C@@H]1OC[C@@H]2Nc1nccc(C2CCCC2)n1)c1ccccc1,active: 63.1 µM
16,CS(=O)(=O)N1CCC(N2CC(OCC3CC3)C23CCCCC3)CC1 (stereo not given),inactive
17,COc1ccc(CC(=O)Nc2ccc([C@@H](O)[C@H]3COCC(=O)N3Cc3ccccc3F)cc2)cc1,"inconclusive: 44.7 µM [inhibitor, partial curve, poor fit]"
18,Fc1ccc2nc([C@H]3CCN(Cc4ccc(F)c(F)c4)C3)[nH]c2c1,active: 56.2 µM
19,COc1ccc(Nc2ccnc(N3CCN(C(=O)C(C)(C)C)CC3)n2)cc1,"inconclusive: 50.1 µM [inhibitor, partial curve, poor fit]"
20,CCNC(=O)N[C@H]1C[C@@H](c2nc(-c3ccc(OC(F)(F)F)cc3)no2)N(C)C1,"inconclusive: 100 µM [inhibitor, partial curve, poor fit]"
21,CC(=O)N1CCC(N2C[C@H](O)C[C@H]2c2nc(-c3ccc(C(F)(F)F)cc3)no2)CC1,active: 70.8 µM
22,CCOC(=O)C1CCCN(C(=O)Cc2ccc(N(Cc3cccc(F)c3)C(=O)c3ccco3)cc2)C1 (stereo not given),"inconclusive: 50.1 µM [inhibitor, partial curve, poor fit]"
